From the supplement of paper PMC7826260
This is one part of the list. Each Rep nickase domain was tested in vitro on the same pool of single strands (3 µM enzyme, 1 h, 37 °C); shown is the middle of each 90-letter strand. Numbers give uncut DNA relative to the enzyme-free pool, as log2; the lower, the more was cut; hits are not called. Counts are relative to all reads; values above 0 arise when much of the pool is cut.

Tested on: T1, Rep nickase domain of wheat dwarf virus
T1 sequence (Rep 1-137, printed without the tag): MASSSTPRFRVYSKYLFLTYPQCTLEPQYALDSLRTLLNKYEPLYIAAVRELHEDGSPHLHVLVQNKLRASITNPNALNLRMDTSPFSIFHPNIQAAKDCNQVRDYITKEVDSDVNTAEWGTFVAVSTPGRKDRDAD
Experiment: uncleaved DNA left, log2 of reads against the no-enzyme library (log2 ratio); higher = less cleavage (more negative = more Rep cleavage of the k-mer); sequences stand for … in CTCGTCCG…ACCGGAGA
Procedure: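 A pool of 90-nt single-stranded DNAs with seven random bases just before the constant AC of the nick site (name = the seven bases) was cut by 3 µM recombinant His6-SUMO-tagged Rep nickase domain (300 nM DNA, 50 mM HEPES pH 8.0, 50 mM NaCl, 1 mM MnCl2, 1 h, 37 °C, three replicates). Uncut DNA was amplified and sequenced.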

| Sequence | uncleaved DNA left (log2) |
| --- | --- |
| GTAACTT | 0.0786 |
| CTACTTC | -0.167 |
| GCAATAA | 0.0641 |
| TATATAC | 0.0161 |
| GGTCTGG | 0.126 |
| TCAACTT | -0.0429 |
| TGGTAGA | 0.122 |
| CGCAATG | 0.101 |
| AACGATA | -0.00891 |
| ACTACGA | -0.142 |
| GGGAACC | 0.084 |
| GTGATGA | 0.127 |
| TAAGAGT | -0.491 |
| TCCAGAC | -0.0768 |
| CGTACAG | 0.0626 |
| GAAGTTA | 0.0846 |
| CAAATCA | 0.124 |
| ATCATCG | -0.142 |
| CACTGTG | -0.157 |
| TAATCGA | -0.951 |

| Sequence | uncleaved DNA left (log2) |
| --- | --- |
| AACCCGG | -0.0622 |
| CGTGGGC | -0.115 |
| ACCTACC | -0.0473 |
| CTGTTAT | -0.176 |
| AGAGAGC | 0.0154 |
| CGTGCAC | -0.0285 |
| TGGCCGC | -0.0286 |
| GACCCGT | 0.084 |
| AAATAAG | -0.127 |
| CTGGACC | 0.069 |
| ATTCCGA | -0.0148 |
| TATCTAG | -0.127 |
| GCAGCTA | 0.0311 |
| TTCGCGA | -0.155 |
| TTGCAGC | -0.093 |
| AAAGCCC | 0.0611 |
| CCGCCCT | -0.0903 |
| GTTTGGC | 0.0164 |
| TTTTAAA | 0.153 |
| AAGCGGG | -0.00936 |
